Reference: the supplement of paper PMC12217912
This is one part of the list. Sequences were assembled here from the parent chain. Values near 0.05 are background.

B1: TEV protease; numbered along this chain (parent)
chain: MGESLFKGPRDYNPISSSICHLTNESDGHTTSLYGIGFGPFIITNKHLFRRNNGTLVVQSLHGVFKVKDTTTLQQHLVDGRDMIIIRMPKDFPPFPQKLKFREPQREERICLVTTNFQTKSMSSMVSDTSCTFPSGDGIFWKHWIQTKDGQCGSPLVSTRDGFIVGIHSASNFTNTNNYFTSVPKNFMELLTNQEAQQWVSGWRLNADSVLWGGHKVFMVKPEEPFQPVKEATQL

Variants of: B1
Test: raw area under fraction-flipped curve 0-4 h after induction (AUC4h, not background-subtracted), DNA-recorder readout of cleavage of the substrate (dimensionless); higher = more cleavage of the substrate by the protease variant
Details: temperature: 34 °C; time window: 0-4 h after rhamnose induction
Experimental: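 In vivo DNA recorder in E. coli TOP10(DE3) ΔrhaA at 34 °C. Each TEVp single-site mutant (parent TEVp 0) is paired with a single-site variant of the 7-mer TEVs (canonical ENLYFQ|S). The substrate sits between flexible linkers in a Bxb1-sfGFP-TEVs-SsrA fusion, so cleavage stabilises Bxb1 and speeds flipping of a recombination array, read by NGS. The value is the raw area under the fraction-flipped curve over 0-4 h after rhamnose induction (AUC4h), with ≥20 reads per time point. It is not background-subtracted; inactive controls average about 0.047.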
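Note: Bxb1 expression induced with 0.2% (w/v) L-rhamnose at OD600 near 0.5, cultures sampled hourly, flipped fraction per protease–substrate barcode pair counted by paired-end Illumina sequencing.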

Row | Variant | area with substrate ENLYFAS | area with substrate ENLYFES | area with substrate ENLYFFS | area with substrate ENLYFHS | area with substrate ENLYFIS | area with substrate ENLYFKS | area with substrate ENLYFLS | area with substrate ENLYFNS | area with substrate ENLYFPS | area with substrate ENLYFRS | area with substrate ENLYFTS | area with substrate ENLYFVS | area with substrate ENLYFCS | area with substrate ENLYFMS | area with substrate ENLYFSS | area with substrate ENLYFWS | area with substrate ENLYFYS | area with substrate ENLYFDS | area with substrate ENLYFGS
1 | D149Q | 0.0558 | 0.0865 | 0.068 | 0.0727 | 0.0603 | 0.0409 | 0.0669 | 0.042 | 0.0557 | 0.0456 | 0.0591 | 0.0772 | – | – | – | – | – | – | –
2 | P225R | 0.0601 | 0.0676 | 0.0651 | 0.055 | 0.0626 | 0.0484 | 0.074 | 0.0618 | 0.064 | 0.0605 | 0.0565 | 0.061 | 0.0671 | 0.0608 | 0.0694 | 0.0536 | 0.0541 | – | –
3 | E224M | 0.0641 | – | 0.0454 | 0.0427 | 0.0587 | – | – | 0.0722 | 0.062 | – | 0.0677 | – | 0.0672 | 0.0773 | – | 0.0615 | – | – | –
4 | K185P | 0.0645 | 0.0658 | 0.0685 | – | – | 0.0461 | 0.067 | 0.0727 | 0.0477 | – | 0.0575 | – | 0.0808 | – | – | – | 0.0503 | – | –
5 | S26V | 0.0502 | 0.048 | 0.0862 | 0.06 | 0.0543 | 0.0585 | 0.0659 | 0.0601 | 0.0567 | – | 0.0526 | 0.0452 | 0.0635 | 0.0512 | – | 0.0522 | – | 0.0704 | 0.0601
6 | E25A | 0.0533 | 0.0705 | 0.0624 | 0.0549 | 0.0506 | 0.0576 | – | 0.0605 | 0.0536 | 0.0593 | 0.0669 | 0.0539 | 0.0524 | 0.0687 | – | 0.0497 | – | 0.0614 | –
7 | F140P | 0.0623 | 0.0562 | 0.0598 | – | 0.0554 | – | 0.0527 | 0.0492 | 0.0603 | 0.0574 | 0.051 | – | – | 0.0665 | – | 0.0543 | – | – | 0.0792
8 | D91C | 0.0626 | 0.0659 | 0.0657 | – | 0.069 | 0.0691 | 0.0611 | 0.0512 | 0.0668 | 0.0797 | 0.0574 | – | 0.0346 | 0.0591 | 0.0534 | 0.0765 | – | 0.0358 | –
9 | T23M | 0.0589 | 0.0619 | 0.0848 | 0.0692 | 0.0592 | 0.0694 | 0.0544 | 0.0655 | 0.0636 | 0.0638 | 0.06 | 0.0538 | 0.0525 | 0.0613 | 0.0607 | 0.0502 | – | – | –
10 | V113C | 0.0618 | 0.0568 | 0.0687 | 0.0663 | 0.0532 | – | 0.0871 | – | 0.0422 | – | 0.0668 | 0.0578 | 0.0549 | 0.0659 | – | 0.0518 | 0.0599 | 0.0506 | –
11 | L235M | 0.0652 | 0.0693 | 0.07 | 0.0551 | 0.0688 | 0.0627 | 0.05 | 0.0658 | 0.0343 | – | 0.0553 | – | 0.0566 | 0.0644 | 0.062 | 0.0482 | 0.0672 | 0.0636 | 0.0657
12 | K100T | 0.0617 | 0.064 | 0.065 | – | 0.0308 | – | – | 0.0633 | 0.0787 | – | – | 0.0637 | 0.0494 | 0.0571 | 0.0501 | – | 0.0437 | – | –
13 | T71F | 0.0653 | 0.0607 | 0.0717 | 0.0516 | 0.0535 | 0.0594 | 0.0482 | 0.0724 | 0.0546 | 0.0556 | 0.0559 | 0.0526 | 0.0553 | 0.0608 | 0.0515 | – | 0.064 | – | –
